This note sets out measurements from PubChem BioAssay AID1963576 (National Center for Advancing Translational Sciences (NCATS), 2024).

About 60 (0.1%) of roughly 46,000 compounds were called active. About 3% were inconclusive and are not listed. Calls follow the shape of the dose curve; as a rule, active = well fitted inhibition curve with a large enough effect; inconclusive = small, poorly fitted or top-dose-only effect; inactive = no such curve, though single readings can be large or run the other way. The list shows a part of the results.

The nature of the assay: Primary qHTS assay for Inhibitors of ovarian cancer metastasis using an organotypic tumor microenvironment (TME) model. Also: nearly all actives have a fitted effect of over 65% in size.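 As to activity change, negative = inhibition: plate controls were DMSO wells for no effect and tomatine positive control wells for full effect.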 The settings on record: SKOV3ip1-GFP adhesion/invasion on 3D omental model, fluorescence; series mostly up to 45.8 µM; activity change, negative = inhibition: at the top concentration. The procedure, abridged:
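Primary human omental fibroblast/mesothelial 3D culture pre-formed 48 h. SKOV3ip1-GFP cells added with compounds (0.36-46 umol/L), incubated 2 h RT/16 h 37 C, fixed; GFP cells quantified at 488/509 nm.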
On to `NC(=O)N1c2ccccc2CC(=O)c2ccccc21`, for which the “activity change, negative = inhibition” value was inactive: -13%.

Take `CN(c1nnc(NC(=O)Nc2ccccc2C(F)(F)F)s1)C1CCCCC1`: the “activity change, negative = inhibition” value was inactive: -0.656%.

In the case of `CS(=O)(=O)CC[C@@H](C(=O)NCCc1ccccc1)N1Cc2ccccc2C1=O`, the “activity change, negative = inhibition” value was inactive: -7.69%.

Turning to `Cc1cc(C)c2c(=O)cc(C(=O)Nc3sc4c(c3C(=O)NCc3ccco3)CCCC4)oc2c1`, the “activity change, negative = inhibition” value was inactive: -22.6%.

Regarding `Cc1cccc(OCC(=O)N2CCC(c3nc4ccccc4o3)CC2)c1C`, the “activity change, negative = inhibition” value is inactive: -6.17%.

As to `CC1CCN(S(=O)(=O)c2cc(C(=O)N3CCN(c4cccc(Cl)c4)CC3)n(C)c2)CC1`, the “activity change, negative = inhibition” value was inactive: -6.13%.

Take `CCOC(=O)c1c(NC(=O)c2cc(-c3cccc(Cl)c3)on2)sc(C(C)=O)c1C`: the “activity change, negative = inhibition” value was inactive: -2.9%.

Consider `O=C(C1COc2ccccc2O1)N(Cc1cccnc1)c1nc2c(F)cccc2s1` (configuration not stated), for which the “activity change, negative = inhibition” value is inactive: 3.1%.

As for `Cc1ccc(NC(=O)Cn2nnc(-c3ccccc3)n2)c(C)c1`, the molecule was classed as inactive.

Regarding `Cc1ccc(Nc2c3c(nc4nncn24)CCC3)c(C)c1`, the “activity change, negative = inhibition” value is inactive: 31%.

With `Cc1ccc(NC(=O)CN2C(=O)c3cccnc3Sc3ccccc32)c(Br)c1`, the “activity change, negative = inhibition” value is inactive: -6.78%.

`CCOc1ccc(S(=O)(=O)c2cn(CC)c3ccc(F)cc3c2=O)cc1`: the “activity change, negative = inhibition” value is inactive: 1.79%.

With `COc1ccccc1C1C(C(=O)N2CCCCC2)=C(C)Nc2nc3ccccc3n21` (configuration not stated), the molecule was called inactive.

In the case of `CCOC(=O)c1nnn(C(CC)C(=O)Nc2ccc(F)cc2)c1C(=O)OCC` (configuration not stated), the “activity change, negative = inhibition” value is inactive: 0.735%.

For `COc1ccc(N(CC(=O)N2CCc3ccccc3C2)S(=O)(=O)c2ccccc2)cc1`, the “activity change, negative = inhibition” value is inactive: -0.819%.

With `O=c1n(Cc2ccc(F)cc2)c2ccccc2c2nc(-c3ccccc3)nn12`, the “activity change, negative = inhibition” value was inactive: 6.73%.

For `Cc1ccc(CNC(=O)c2ccc(Cn3c(SCc4ccc(F)cc4)nc4cccnc43)cc2)o1`, the “activity change, negative = inhibition” value is inactive: -7.06%.

On to `Cc1ccc(-n2nc(CO)c(C(=O)NCCC(C)C)n2)cc1C`, for which the result was inactive.

Regarding `COc1cccc(-n2c(=O)c3sc4ccccc4c3n(Cc3c(F)cccc3Cl)c2=O)c1`, the result was inactive.

For the molecule `CCc1cccc(NC(=O)CSc2nnc(-c3cc4occc4n3C)n2-c2ccccc2C)c1`, the “activity change, negative = inhibition” value was inactive: -8.44%.

In the case of `COc1cccc(/C=C/c2nc(C#N)c(NC3CCCCC3)o2)c1`, the “activity change, negative = inhibition” value was inactive: -10.7%.

As to `CSc1ccc(CCNC(=O)Cn2c(C)c3cnn(-c4ccccc4)c(=O)c3c2C)cc1`, the call was inactive.

Regarding `Cc1ccc(N2C(=O)C(CC(=O)Nc3cccc(F)c3)N(CCc3ccccc3F)C2=O)cc1` (configuration not stated), the molecule was called inactive.

With `CCOC(=O)c1c(C)oc2nc(C)nc(NCC3CCN(Cc4cc(C)ccc4C)CC3)c12`, the “activity change, negative = inhibition” value was inactive: 1.59%.

In the case of `CNC(=O)c1ccc2cc(C3(O)CCn4cncc43)ccc2c1` (configuration not stated), the “activity change, negative = inhibition” value is inactive: 6.12%.

With `CCc1cnc2c(c1SCC(=O)NCc1ccc(C)cc1)c(=O)n(C)c(=O)n2C`, the “activity change, negative = inhibition” value was inactive: 12.7%.

For `Cc1ccc(CNC(=O)C2CCN(S(=O)(=O)c3ccc4nc5c(c(C(=O)O)c4c3)CC(C)CC5)CC2)cc1` (configuration not stated), the “activity change, negative = inhibition” value is inactive: 15.4%.

As to `COc1cccc(NC(=O)N(CCC(C)C)C2CCN(C(C)C)CC2)c1`, the “activity change, negative = inhibition” value is inactive: -1.11%.

On to `Cc1ccccc1OCC(=O)Nc1ccc(-c2nc3cc(Cl)cc(Cl)c3o2)cc1`, for which the “activity change, negative = inhibition” value is inactive: 9.05%.

`CC(=O)c1ccc(NS(=O)(=O)c2ccc(Br)s2)cc1`: the molecule was called inactive.

Turning to `Cn1ccc2c(OCC(=O)Nc3ccc(OC(F)(F)F)cc3)cccc2c1=O`, the result was inactive.

Turning to `COc1cc2nc(SCC(=O)Nc3ccccc3C)n3nc(CCn4c(C)nc5ccccc54)nc3c2cc1OC`, the “activity change, negative = inhibition” value was inactive: 1.43%.

As to `CC(C)(C)C1CCc2c(sc(NC(=O)c3ccco3)c2C(=O)Nc2ccccc2Cl)C1` (configuration not stated), the “activity change, negative = inhibition” value was inactive: -1.43%.

In the case of `COc1cc(Cl)c(C)cc1NC(=O)c1cc2c(=O)oc3ccccc3c2s1`, the call was inactive.

As to `CCn1cc(C(=O)N2CCN(c3cc(Cl)ccc3C)CC2)c(=O)c2cc(S(=O)(=O)N3CCCC3)ccc21`, the “activity change, negative = inhibition” value was inactive: 1.73%.

For the molecule `CCOc1ccc(C(=O)OCc2cc(=O)n3nc(C4CC4)sc3n2)cc1`, the result was inactive.

With `COc1ccc(CNC(=O)C2=CC(c3ccc(OC)c(OC)c3)=NS(=O)(=O)N2C)cc1`, the “activity change, negative = inhibition” value was inactive: 2.94%.

With `Cc1cc(C(=O)N2CCN(c3cccc(Cl)c3)CC2)c2c(C)nn(-c3ccccc3Cl)c2n1`, the call was inactive.

As to `CCOC(=O)c1ccc(N2CCN(c3ccccc3OC)CC2)c(NC(=O)Nc2ccc(CC)cc2)c1`, the “activity change, negative = inhibition” value is inactive: -4.87%.

With `Cc1cccc2sc(N(Cc3cccnc3)C(=O)CCOc3ccccc3)nc12`, the “activity change, negative = inhibition” value was inactive: 2.66%.

With `CCOC(=O)CSc1nc2ccc(NC(=O)COc3ccc(F)cc3)cc2s1`, the “activity change, negative = inhibition” value was inactive: -0.75%.

For the molecule `CCOCCCNC(=O)c1cn(CC)c2ccc(S(=O)(=O)N3CCOCC3)cc2c1=O`, the result was inactive.

Consider `CN(C)c1ccc(C(CNC(=O)c2ccccc2Cl)N2CCCC2)cc1` (configuration not stated), for which the “activity change, negative = inhibition” value is inactive: 6.05%.

As to `Cc1cc(C)c(NC(=O)C2CCN(S(=O)(=O)c3c(C)noc3/C=C/c3ccccc3F)CC2)c(C)c1`, the “activity change, negative = inhibition” value was inactive: -4.76%.

Consider `COc1ccc(S(=O)(=O)c2c(Nc3ccc(C)cc3C)sc(C(=O)c3ccc(F)cc3)c2N)cc1`, for which the “activity change, negative = inhibition” value was inactive: -5.63%.

For the molecule `CCOc1ccc(NC(=O)N(Cc2cn(CC)c3ccccc23)C2CCCCCC2)cc1`, the call was inactive.

For `COc1ccc(N2CCN(CCCNC(=O)c3cnn(-c4ccc(C)cc4)c3-n3cccc3)CC2)cc1`, the “activity change, negative = inhibition” value was inactive: -17.5%.
